Patent US20210015895A1 (PROCLARA BIOSCIENCES, published 2021)
Where a chain is given by its changes, count along the chain named.

B1: mature fusion protein of SEQ ID NO:1 omitting M258 and V259 (Fc fusion)
chain: AETVESCLAKPHTENSFTNVWKDDKTLDRYANYEGCLWNATGVVVCTGDETQCYGTWVPIGLAIPENEGGGSEGGGSEGGGSEGGGTKPPEYGDTPIPGYTYINPLDGTYPPGTEQNPANPNPSLEESQPLNTFMFQNNRFRNRQGALTVYTGTFTQGTDPVKTYYQYTPVSSKAMYDAYWNGKFRDCAFHSGFNEDPFVCEYQGQSSDLPQPPVNAGGGSGGGSGGGSEGGGSEGGGSEGGGSEGGGSGGGSGSGARS[human IgG1 Fc not printed]
notes: also called mature fusion protein lacking M258 and V259
B2: Polypeptide No. 67 (Fc fusion)
chain: B1 chain with Y54R, M135T, V215A, G220E
B3: Polypeptide No. 68 (Fc fusion)
chain: B1 chain with Y54R, R140Q, V215A, G220E
B4: Polypeptide No. 71 (Fc fusion)
chain: B1 chain with T56H, R140Q, V215A, G220E
B5: Polypeptide No. 74 (Fc fusion)
chain: B1 chain with T56K, R140Q, V215A, G220E
B6: Polypeptide No. 75 (Fc fusion)
chain: B1 chain with Y54K, D178N, V215A, G220E
B7: Polypeptide No. 76 (Fc fusion)
chain: B1 chain with Y54K, W181H, V215A, G220E
B8: Polypeptide No. 79 (Fc fusion)
chain: B1 chain with Y54R, D178N, V215A, G220E
B9: Polypeptide No. 80 (Fc fusion)
chain: B1 chain with Y54R, W181H, V215A, G220E
B10: Polypeptide No. 81 (Fc fusion)
chain: B1 chain with Y54R, W181R, V215A, G220E
B11: Polypeptide No. 82 (Fc fusion)
chain: B1 chain with Y54R, K174R, V215A, G220E
B12: Polypeptide No. 91 (Fc fusion)
chain: B1 chain with M135K, D178N, V215A, G220E
B13: Polypeptide No. 92 (Fc fusion)
chain: B1 chain with M135K, W181H, V215A, G220E
B14: Polypeptide No. 93 (Fc fusion)
chain: B1 chain with M135K, W181R, V215A, G220E
B15: Polypeptide No. 95 (Fc fusion)
chain: B1 chain with M135T, D178N, V215A, G220E
B16: Polypeptide No. 96 (Fc fusion)
chain: B1 chain with M135T, W181H, V215A, G220E
B17: Polypeptide No. 97 (Fc fusion)
chain: B1 chain with M135T, W181R, V215A, G220E
B18: Polypeptide No. 99 (Fc fusion)
chain: B1 chain with R140Q, D178N, V215A, G220E
B19: Polypeptide No. 100 (Fc fusion)
chain: B1 chain with R140Q, W181H, V215A, G220E
B20: Polypeptide No. 101 (Fc fusion)
chain: B1 chain with R140Q, W181R, V215A, G220E
B21: Polypeptide No. 102 (Fc fusion)
chain: B1 chain with R140Q, K174R, V215A, G220E

molecular target: T1, Aβ42 fibers (UniProt P05067 in part); experiment: ELISA on coated Aβ42 fibers
T1 construct: domain: Aβ42; Fibrillar aggregate dry-coated on ELISA plates; number of chains in a fiber not defined; also called ABeta; Abeta

Binder | binding result
B1 | binds

molecular target: T1, Aβ42 fibers; experiment: ELISA on coated Aβ42 fibers; IC50 ratio to SEQ ID NO:2
T1 sequence (P05067 672-713 limits assumed): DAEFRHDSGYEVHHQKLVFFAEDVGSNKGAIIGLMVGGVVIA
Experimental: To each well of a 96-well plate (F96 MAXISORP NUNC-IMMUNO PLATE; Catalog number: 442404, Lot 125436 and 128158; Denmark) was added 200 μL of a 1% BSA solution. The plates were sealed and incubated at 7° C. for 3 hr. Plates were then washed with PBS (250 μL/well)×3. We added 50 μL of the diluted Aβ42 fiber solution (1.6 μM) to each well and incubated uncovered at 37° C. overnight to complete dryness. PBS (50 μl/well) is added to control wells (without Aβ42 fibers). Plates were then washed 2× with water and 1× with PBS (250 μL/well for each washing).
Varying concentrations of each polypeptide (as well as the polypeptide of SEQ ID NO:2) in 50 μL were added to each well, as well as to non-Aβ42 fiber coated wells and incubated for 1 h at 37° C. Plates were then washed 3× with PBS-T (0.05% Tween 20 in PBS) and 3× with PBS (250 μL/well for each washing). We then added 50 μl of HRP-conjugated Goat anti-Human anti Fcγ (Jackson Labs, Catalog number, 109-035-008, Lot number: 106617) diluted 1:2500 (0.32 μg/mL final) in PBS-T+1% Milk (Difco™ Skim Milk, Becton, Dickinson and Company. USA, Catalog number: 232100, Lot number: 7320448) to each well and incubated for 40 min at 37° C. Plates were then washed 6× with PBS-T and 2× with PBS (250 μL/well for each washing). We then added 50 μl/well OPD solution (5 mg/7.5 ml 0.05 M Citrate buffer pH-5.513 μl H₂O₂) and let color to develop for 3-6 min. We next added 25 μl/well of 4N HCl solution to stop reaction. Plates were read for absorbance at 492 nm and 405 nm. The 405 nm absorbance was subtracted from the 492 nm absorbance and the results plotted as a function of polypeptide concentrations. An IC₅₀ for binding for each deimmunized polypeptide was then calculated and compared to the IC₅₀ calculated for the polypeptide of SEQ ID NO:2.
The above-indicated polypeptides were assayed for binding to beta-amyloid using the ELISA assay set forth in Example 5. Relative binding values reflect IC₅₀ (polypeptide of SEQ ID NO:2)/IC₅₀ (tested polypeptide) (e.g., the lower the value the greater the binding of the polypeptide as compared to a polypeptide of SEQ ID NO:2). Multiple values reflect duplicate testing in the binding assay.

Binder | Relative Binding Value [ratio]
B2 | 0.1
B3 | 0.19
B4 | 0.42
B5 | 0.26
B6 | 0.11
B7 | 0.13
B8 | 0.08
B9 | 0.16
B10 | 0.14
B11 | 0.2
B12 | 0.14
B13 | 0.24
B14 | 0.34
B15 | 0.07
B16 | 0.15
B17 | 0.14
B18 | 0.11
B19 | 0.36
B20 | 0.2
B21 | 0.23
